Test results from the supplement of paper PMC4967469.
IC50 is the fitted dose that halves viability relative to control wells, and lower means more sensitive; where the fit passes the top or lowest dose, that dose stands as a limit. The AUC spans the tested range (256-fold, ending at the top dose) of the same fit; it is 1 without any effect and falls as sensitivity rises.

compound: FC(F)c1nc2ccccc2n1-c1nc(N2CCOCC2)nc(N2CCOCC2)n1 [ZSTK474]; test: Viability of human cancer cell lines after 72 h of drug (GDSC screen)
Procedure: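 Human cancer cell lines in 384-well plates, medium with 10% serum, drug for 72 h over a 256-fold dose range (nine 2-fold or five 4-fold steps up to the top dose). Adherent lines were fixed and stained with the nucleic acid dye Syto60, suspension lines read with resazurin; signal relative to control wells, capped at 0 and 100%. One two-parameter sigmoid per drug and line, fitted in a mixed model over all curves with the slope shared within a line.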

| Cell Line | AUC | IC50 |
| --- | --- | --- |
| OVISE (ovary, adherent, top dose 5.12 µM) | 0.669 | 1110 nM |
| OVK-18 (ovary, adherent, top dose 5.12 µM) | 0.788 | 2510 nM |
| OVKATE (ovary, adherent, top dose 5.12 µM) | 0.829 | > 5120 nM |
| OVMIU (ovary, adherent, top dose 5.12 µM) | 0.424 | 189 nM |
| OVTOKO (ovary, adherent, top dose 5.12 µM) | 0.754 | 2150 nM |
| P12-ICHIKAWA (T-cell lymphoblastic leukaemia, suspension, top dose 5.12 µM) | 0.376 | 158 nM |
| P30-OHK (lymphoblastic leukaemia, suspension, top dose 5.12 µM) | 0.193 | 48.5 nM |
| P31-FUJ (acute myeloid leukaemia, suspension, top dose 5.12 µM) | 0.985 | > 5120 nM |
| P32-ISH (Burkitt lymphoma, suspension, top dose 5.12 µM) | 0.4 | 183 nM |
| PA-1 (ovary, adherent, top dose 5.12 µM) | 0.404 | 186 nM |
| PA-TU-8902 (pancreas, adherent, top dose 5.12 µM) | 0.681 | 1130 nM |
| PA-TU-8988T (pancreas, adherent, top dose 5.12 µM) | 0.797 | 2430 nM |
| PANC-02-03 (pancreas, adherent, top dose 5.12 µM) | 0.764 | 2210 nM |
| PANC-03-27 (pancreas, adherent, top dose 5.12 µM) | 0.665 | 892 nM |
| PANC-04-03 (pancreas, adherent, top dose 5.12 µM) | 0.976 | > 5120 nM |
| PANC-08-13 (pancreas, adherent, top dose 5.12 µM) | 0.639 | 867 nM |
| PANC-10-05 (pancreas, adherent, top dose 5.12 µM) | 0.544 | 435 nM |

| Cell Line | AUC | IC50 |
| --- | --- | --- |
| PC-3 (prostate, adherent, top dose 5.12 µM) | 0.638 | 841 nM |
| PC-3 [JPC-3] (lung adenocarcinoma, adherent, top dose 5.12 µM) | 0.645 | 925 nM |
| PC-14 (lung adenocarcinoma, adherent, top dose 5.12 µM) | 0.823 | 2590 nM |
| PCI-4B (head and neck, adherent, top dose 5.12 µM) | 0.805 | 2420 nM |
| PCI-6A (head and neck, adherent, top dose 5.12 µM) | 0.817 | 2790 nM |
| PCI-15A (head and neck, adherent, top dose 5.12 µM) | 0.81 | 2720 nM |
| PCI-30 (head and neck, adherent, top dose 5.12 µM) | 0.971 | > 5120 nM |
| PCI-38 (head and neck, adherent, top dose 5.12 µM) | 0.944 | > 5120 nM |
| PE/CA-PJ15 (head and neck, adherent, top dose 5.12 µM) | 0.92 | > 5120 nM |
| PEO1 (ovary, adherent, top dose 5.12 µM) | 0.797 | 2530 nM |
| PF-382 (T-cell lymphoblastic leukaemia, suspension, top dose 5.12 µM) | 0.387 | 163 nM |
| PFSK-1 (medulloblastoma, adherent, top dose 5.12 µM) | 0.773 | 2110 nM |
| PL4 (pancreas, adherent, top dose 5.12 µM) | 0.882 | > 5120 nM |
| PL18 (pancreas, adherent, top dose 5.12 µM) | 0.924 | > 5120 nM |
| PL-21 (acute myeloid leukaemia, suspension, top dose 5.12 µM) | 0.387 | 149 nM |
| PSN1 (pancreas, adherent, top dose 5.12 µM) | 0.8 | 2040 nM |
